Source: the BET-seq Pho4 binding data (Le et al. 2018)
This is one part of the list. The energies were worked out here from pooled read counts, against the library average; single values are noisy.

What follows are sequences tested against T1, Pho4 (S. cerevisiae) (UniProt P07270) (assay: relative binding free energy (BET-seq); higher = weaker binding). Conditions: reference: library average.
T1 sequence: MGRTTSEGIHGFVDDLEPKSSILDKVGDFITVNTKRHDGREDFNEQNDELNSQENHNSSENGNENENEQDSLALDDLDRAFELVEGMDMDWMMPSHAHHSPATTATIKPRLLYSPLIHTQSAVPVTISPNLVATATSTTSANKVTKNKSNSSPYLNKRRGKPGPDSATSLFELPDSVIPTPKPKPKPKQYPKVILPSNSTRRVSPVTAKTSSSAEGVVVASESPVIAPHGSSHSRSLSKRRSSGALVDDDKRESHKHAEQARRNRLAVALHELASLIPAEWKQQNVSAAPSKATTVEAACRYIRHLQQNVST

Q: With AGTACCACGTGTTAGG as the sequence, how does the “relative binding free energy” value read?
A: -0.02 kcal/mol

Q: How did the “relative binding free energy” value turn out when AGTGTCACGTGTATCT was run?
A: 0 kcal/mol

Q: GTTACCACGTGTATGT was tested. Which “relative binding free energy” value did it give?
A: -0.05 kcal/mol

Q: With AATAGCACGTGGGTAT as the sequence, how does the “relative binding free energy” value read?
A: -0.26 kcal/mol

Q: For TCCGGCACGTGGCGGG, which “relative binding free energy” value is on record?
A: -0.06 kcal/mol

Q: How did the “relative binding free energy” value turn out when CTGGCCACGTGTCGGG was run?
A: 0.01 kcal/mol

Q: With TTAATCACGTGAATGT as the sequence, how does the “relative binding free energy” value read?
A: 0.4 kcal/mol

Q: How did the “relative binding free energy” value turn out when TGTTGCACGTGCGTGA was run?
A: -0.11 kcal/mol

Q: How did the “relative binding free energy” value turn out when ATAGTCACGTGTGAGG was run?
A: 0.19 kcal/mol

Q: GGTTTCACGTGTTCGA was tested. Which “relative binding free energy” value did it give?
A: 0.23 kcal/mol

Q: With TTGACCACGTGTGGCG as the sequence, how does the “relative binding free energy” value read?
A: -0.04 kcal/mol

Q: With AGGTTCACGTGGCTGA as the sequence, how does the “relative binding free energy” value read?
A: 0.14 kcal/mol

Q: Which “relative binding free energy” value does the source give for GGTATCACGTGAGTGA here?
A: 0.2 kcal/mol

Q: For TGGTTCACGTGAGCAA, which “relative binding free energy” value is on record?
A: 0.37 kcal/mol

Q: For TGCGGCACGTGTTTGA, which “relative binding free energy” value is on record?
A: -0.03 kcal/mol

Q: AGGGTCACGTGAGCGA was tested. Which “relative binding free energy” value did it give?
A: 0.27 kcal/mol

Q: With AGTTTCACGTGTATAC as the sequence, how does the “relative binding free energy” value read?
A: 0.23 kcal/mol

Q: How did the “relative binding free energy” value turn out when ATGAGCACGTGGTTTA was run?
A: -0.06 kcal/mol

Q: Which “relative binding free energy” value does the source give for TGGTCCACGTGTGGGG here?
A: 0.04 kcal/mol

Q: With ACGTGCACGTGAGTTA as the sequence, how does the “relative binding free energy” value read?
A: 0.04 kcal/mol

Q: Which “relative binding free energy” value does the source give for TTATGCACGTGTTGGT here?
A: 0.02 kcal/mol

Q: AATTGCACGTGTTAGT was tested. Which “relative binding free energy” value did it give?
A: 0.04 kcal/mol

Q: With ATTAGCACGTGGTGCT as the sequence, how does the “relative binding free energy” value read?
A: -0.12 kcal/mol

Q: For AGGATCACGTGAGGTT, which “relative binding free energy” value is on record?
A: 0.25 kcal/mol

Q: Which “relative binding free energy” value does the source give for TCGGTCACGTGTCGAT here?
A: 0.14 kcal/mol

Q: For TAAGACACGTGTGGGA, which “relative binding free energy” value is on record?
A: 0.03 kcal/mol

Q: For GTTGGCACGTGATAGT, which “relative binding free energy” value is on record?
A: 0.06 kcal/mol

Q: GAGGACACGTGGGGTG was tested. Which “relative binding free energy” value did it give?
A: -0.09 kcal/mol

Q: For TTGCGCACGTGGAGGA, which “relative binding free energy” value is on record?
A: -0.03 kcal/mol

Q: For AGGGGCACGTGCGTCA, which “relative binding free energy” value is on record?
A: -0.19 kcal/mol

Q: Which “relative binding free energy” value does the source give for CTTTGCACGTGTAGGG here?
A: 0.05 kcal/mol

Q: AGTGACACGTGGATCG was tested. Which “relative binding free energy” value did it give?
A: 0.15 kcal/mol

Q: For TACTTCACGTGGAGTG, which “relative binding free energy” value is on record?
A: 0.29 kcal/mol

Q: TTAAACACGTGGATGC was tested. Which “relative binding free energy” value did it give?
A: 0.1 kcal/mol

Q: For TGTTTCACGTGTTCCG, which “relative binding free energy” value is on record?
A: 0.21 kcal/mol

Q: How did the “relative binding free energy” value turn out when TTGTCCACGTGATTTA was run?
A: 0.19 kcal/mol

Q: How did the “relative binding free energy” value turn out when GATCGCACGTGGTGTG was run?
A: -0.14 kcal/mol

Q: TATTACACGTGGATGA was tested. Which “relative binding free energy” value did it give?
A: 0.17 kcal/mol

Q: With TTGCGCACGTGAGCGT as the sequence, how does the “relative binding free energy” value read?
A: -0.03 kcal/mol

Q: For GGCAGCACGTGGAGTG, which “relative binding free energy” value is on record?
A: -0.17 kcal/mol

Q: Which “relative binding free energy” value does the source give for CTAGTCACGTGTTGAG here?
A: 0.03 kcal/mol

Q: For CTGGGCACGTGTTTCT, which “relative binding free energy” value is on record?
A: -0.07 kcal/mol

Q: With GCGGCCACGTGAAGGG as the sequence, how does the “relative binding free energy” value read?
A: 0.27 kcal/mol

Q: Which “relative binding free energy” value does the source give for TGGGGCACGTGCGACG here?
A: -0.12 kcal/mol

Q: TTTCACACGTGTGGGC was tested. Which “relative binding free energy” value did it give?
A: 0.12 kcal/mol

Q: Which “relative binding free energy” value does the source give for GGGTGCACGTGACTTG here?
A: 0.2 kcal/mol

Q: ATGGACACGTGCTTTT was tested. Which “relative binding free energy” value did it give?
A: 0.03 kcal/mol

Q: Which “relative binding free energy” value does the source give for GAGTTCACGTGGAGTA here?
A: 0.35 kcal/mol

Q: Which “relative binding free energy” value does the source give for GGAATCACGTGGGGGA here?
A: 0.11 kcal/mol

Q: With CGTATCACGTGATTTT as the sequence, how does the “relative binding free energy” value read?
A: 0.17 kcal/mol

Q: Which “relative binding free energy” value does the source give for TGGTTCACGTGCAGCG here?
A: 0.15 kcal/mol

Q: TTGAGCACGTGAAAGA was tested. Which “relative binding free energy” value did it give?
A: 0.51 kcal/mol

Q: For TATTTCACGTGATACT, which “relative binding free energy” value is on record?
A: 0.16 kcal/mol

Q: With TCGGGCACGTGCAGTT as the sequence, how does the “relative binding free energy” value read?
A: -0.17 kcal/mol

Q: TTGTTCACGTGATGAG was tested. Which “relative binding free energy” value did it give?
A: 0.37 kcal/mol

Q: For GTAGACACGTGGTGTC, which “relative binding free energy” value is on record?
A: 0.06 kcal/mol

Q: How did the “relative binding free energy” value turn out when CGGGGCACGTGCGATA was run?
A: -0.08 kcal/mol

Q: CTAGACACGTGTTGGG was tested. Which “relative binding free energy” value did it give?
A: 0.03 kcal/mol

Q: How did the “relative binding free energy” value turn out when TTTTTCACGTGAAGGG was run?
A: 0.37 kcal/mol

Q: Which “relative binding free energy” value does the source give for TGTCTCACGTGTGGGA here?
A: 0.22 kcal/mol

Q: ATTAGCACGTGTGTTC was tested. Which “relative binding free energy” value did it give?
A: 0 kcal/mol

Q: Which “relative binding free energy” value does the source give for AAGTACACGTGGTTAT here?
A: 0.04 kcal/mol

Q: For ATCTTCACGTGTGTAT, which “relative binding free energy” value is on record?
A: 0.19 kcal/mol

Q: Which “relative binding free energy” value does the source give for CTGTTCACGTGGGGTG here?
A: 0.08 kcal/mol

Q: Which “relative binding free energy” value does the source give for TTGTACACGTGCTGTC here?
A: 0.11 kcal/mol

Q: How did the “relative binding free energy” value turn out when CGATTCACGTGGTGAG was run?
A: 0.34 kcal/mol

Q: Which “relative binding free energy” value does the source give for ACATTCACGTGTGTGT here?
A: 0.11 kcal/mol

Q: For GTTTACACGTGAATTA, which “relative binding free energy” value is on record?
A: 0.39 kcal/mol

Q: With TCAGGCACGTGTGGCG as the sequence, how does the “relative binding free energy” value read?
A: -0.06 kcal/mol

Q: How did the “relative binding free energy” value turn out when GACTGCACGTGGTGGG was run?
A: 0.11 kcal/mol

Q: Which “relative binding free energy” value does the source give for TAGAGCACGTGAGCTT here?
A: 0.28 kcal/mol

Q: Which “relative binding free energy” value does the source give for AGTTTCACGTGTGTTC here?
A: 0.24 kcal/mol

Q: For GAATACACGTGGGGGC, which “relative binding free energy” value is on record?
A: 0.03 kcal/mol

Q: Which “relative binding free energy” value does the source give for GTCGGCACGTGGAATT here?
A: 0.17 kcal/mol

Q: TTTTTCACGTGCTTAC was tested. Which “relative binding free energy” value did it give?
A: 0.24 kcal/mol

Q: With GGTAGCACGTGCAGGG as the sequence, how does the “relative binding free energy” value read?
A: -0.05 kcal/mol

Q: With TTTTTCACGTGGTAAG as the sequence, how does the “relative binding free energy” value read?
A: 0.24 kcal/mol

Q: AGATTCACGTGTAATA was tested. Which “relative binding free energy” value did it give?
A: 0.26 kcal/mol

Q: Which “relative binding free energy” value does the source give for ATGTGCACGTGTGTGA here?
A: 0.01 kcal/mol

Q: For TGAGGCACGTGAGGCA, which “relative binding free energy” value is on record?
A: 0 kcal/mol

Q: How did the “relative binding free energy” value turn out when GGGGCCACGTGCATGT was run?
A: -0.23 kcal/mol

Q: With ATAAGCACGTGGTTAA as the sequence, how does the “relative binding free energy” value read?
A: -0.22 kcal/mol

Q: How did the “relative binding free energy” value turn out when AAGTGCACGTGGGTTT was run?
A: -0.2 kcal/mol

Q: With GGGCGCACGTGACTGG as the sequence, how does the “relative binding free energy” value read?
A: 0 kcal/mol

Q: With GTAAGCACGTGTCTGG as the sequence, how does the “relative binding free energy” value read?
A: -0.12 kcal/mol

Q: ATGTTCACGTGGGTCT was tested. Which “relative binding free energy” value did it give?
A: -0.04 kcal/mol

Q: For TAAGGCACGTGCAGTG, which “relative binding free energy” value is on record?
A: -0.15 kcal/mol

Q: GGGGGCACGTGGTATG was tested. Which “relative binding free energy” value did it give?
A: -0.27 kcal/mol

Q: AGAGTCACGTGGGCCT was tested. Which “relative binding free energy” value did it give?
A: 0.06 kcal/mol

Q: GTTCGCACGTGGTAGT was tested. Which “relative binding free energy” value did it give?
A: -0.01 kcal/mol

Q: How did the “relative binding free energy” value turn out when ATAGGCACGTGCGGAT was run?
A: -0.2 kcal/mol

Q: For GGTAGCACGTGTACTG, which “relative binding free energy” value is on record?
A: -0.05 kcal/mol

Q: With CGGATCACGTGGGAAG as the sequence, how does the “relative binding free energy” value read?
A: 0.13 kcal/mol

Q: Which “relative binding free energy” value does the source give for ATTTGCACGTGGGGGG here?
A: 0 kcal/mol

Q: For GTGCGCACGTGTAATT, which “relative binding free energy” value is on record?
A: 0.05 kcal/mol

Q: GAGATCACGTGGGTGC was tested. Which “relative binding free energy” value did it give?
A: 0.29 kcal/mol

Q: Which “relative binding free energy” value does the source give for CTATGCACGTGGTGAG here?
A: -0.17 kcal/mol

Q: With GTTGTCACGTGTTCAC as the sequence, how does the “relative binding free energy” value read?
A: 0.3 kcal/mol

Q: CTATGCACGTGGTCGG was tested. Which “relative binding free energy” value did it give?
A: -0.2 kcal/mol

Q: TGCCTCACGTGTTTGG was tested. Which “relative binding free energy” value did it give?
A: 0.14 kcal/mol

Q: For TTCTGCACGTGTTAGC, which “relative binding free energy” value is on record?
A: 0.07 kcal/mol

Q: Which “relative binding free energy” value does the source give for TCTAGCACGTGTGGGC here?
A: 0 kcal/mol

Q: AGTTGCACGTGGGTGG was tested. Which “relative binding free energy” value did it give?
A: -0.1 kcal/mol

Q: CGGGTCACGTGTAAGC was tested. Which “relative binding free energy” value did it give?
A: 0.29 kcal/mol

Q: Which “relative binding free energy” value does the source give for ACATTCACGTGTGTGA here?
A: 0.25 kcal/mol

Q: Which “relative binding free energy” value does the source give for TGGTGCACGTGTATCG here?
A: 0.13 kcal/mol

Q: With TGGTTCACGTGAGGCT as the sequence, how does the “relative binding free energy” value read?
A: 0.32 kcal/mol

Q: How did the “relative binding free energy” value turn out when ACAGTCACGTGTGTGA was run?
A: 0.08 kcal/mol

Q: How did the “relative binding free energy” value turn out when GGGGACACGTGGTAGC was run?
A: -0.09 kcal/mol

Q: With CGTTGCACGTGATGAG as the sequence, how does the “relative binding free energy” value read?
A: -0.01 kcal/mol

Q: With GGGGGCACGTGGGCGT as the sequence, how does the “relative binding free energy” value read?
A: -0.16 kcal/mol

Q: With ATATGCACGTGGGCTG as the sequence, how does the “relative binding free energy” value read?
A: -0.2 kcal/mol

Q: Which “relative binding free energy” value does the source give for ACTTCCACGTGGTGTT here?
A: 0.15 kcal/mol

Q: AGGCGCACGTGCATGG was tested. Which “relative binding free energy” value did it give?
A: -0.15 kcal/mol

Q: For AGTCTCACGTGGAGTG, which “relative binding free energy” value is on record?
A: 0.2 kcal/mol
